# From publication PMC12820563, “FoxP3 forms a head-to-head dimer in vivo and stabilizes its multimerization on adjacent microsatellites”
# The other results are listed elsewhere or left out.
# Molecular target: T1, MBP-FoxP1dN (Mus musculus, UniProt P58462 326-579)
# T1 sequence: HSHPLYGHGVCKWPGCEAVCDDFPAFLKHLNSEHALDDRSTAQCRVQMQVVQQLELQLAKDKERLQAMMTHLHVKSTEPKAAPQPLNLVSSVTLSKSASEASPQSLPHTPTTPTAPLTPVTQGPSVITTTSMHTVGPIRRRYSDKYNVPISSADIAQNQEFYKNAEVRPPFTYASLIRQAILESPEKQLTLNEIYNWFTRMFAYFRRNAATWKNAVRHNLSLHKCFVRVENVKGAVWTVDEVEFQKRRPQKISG
# Experiment: PD-seq (MBP pull-down with sequencing); 20 mM Tris-HCl pH 7.5, 100 mM NaCl, 1.5 mM MgCl2, 0.4 uM protein, 0.1 uM dsDNA library, 30 min, room temperature, amylose pull-down; high values mean tight binding
# Conditions: protein: recombinant; tags: His6-MBP; chain copies: 2; dsDNA, one strand shown
# Outline: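 E. coli-expressed mouse FoxP3 or FoxP1 fragment, N-terminus removed and tagged with His6-MBP, was used at 0.4 µM against 0.1 µM of a Klenow-filled degenerate double-stranded DNA library. After 30 min at room temperature in Tris pH 7.5 buffer with NaCl and MgCl2, complexes were pulled down on amylose resin and washed three times. Binding is pull-down over input reads-per-million enrichment from pooled replicates of the proteinase K-released, PCR-barcoded, Illumina-sequenced DNA.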
row,Sequence,binding signal
1,GATGATTGTTCTCCCAGCTGATGAATTAGGGCGATCGAGTAAACAAATTTTCCTAATCTTTCTGTTCAAGCGCCATCTAC,0.834 RPM ratio (pull-down/input)
2,GATGATTGTTCTCCCAGCTGATGAATTTTTTAGCTCGAGTAAACAAATTTTCCTAATCTTTCTGTTCAAGCGCCATCTAC,0.853 RPM ratio (pull-down/input)
3,GATGATTGTTCTCCCAGCTGATGAATTAAAGATCTCGAGTAAACAAATTTTCCTAATCTTTCTGTTCAAGCGCCATCTAC,0.81 RPM ratio (pull-down/input)
4,GATGATTGTTCTCCCAGCTGATGAATTTCAAGACTCGAGTAAACAAATTTTCCTAATCTTTCTGTTCAAGCGCCATCTAC,0.724 RPM ratio (pull-down/input)
5,GATGATTGTTCTCCCAGCTGATGAATTTCCAACATCGAGTAAACAAATTTTCCTAATCTTTCTGTTCAAGCGCCATCTAC,1.01 RPM ratio (pull-down/input)
6,GATGATTGTTCTCCCAGCTGATGAATTGCGTGTGTCGAGTAAACAAATTTTCCTAATCTTTCTGTTCAAGCGCCATCTAC,1.11 RPM ratio (pull-down/input)
7,GATGATTGTTCTCCCAGCTGATGAATTGTGTTAGTCGAGTAAACAAATTTTCCTAATCTTTCTGTTCAAGCGCCATCTAC,1.58 RPM ratio (pull-down/input)
8,GATGATTGTTCTCCCAGCTGATGAATTAGAACAATCGAGTAAACAAATTTTCCTAATCTTTCTGTTCAAGCGCCATCTAC,1.37 RPM ratio (pull-down/input)
9,GATGATTGTTCTCCCAGCTGATGAATTTCACTACTCGAGTAAACAAATTTTCCTAATCTTTCTGTTCAAGCGCCATCTAC,0.818 RPM ratio (pull-down/input)
10,GATGATTGTTCTCCCAGCTGATGAATTAAAAACATCGAGTAAACAAATTTTCCTAATCTTTCTGTTCAAGCGCCATCTAC,2.08 RPM ratio (pull-down/input)
11,GATGATTGTTCTCCCAGCTGATGAATTACTGTAATCGAGTAAACAAATTTTCCTAATCTTTCTGTTCAAGCGCCATCTAC,1.63 RPM ratio (pull-down/input)
12,GATGATTGTTCTCCCAGCTGATGAATTACAACAGTCGAGTAAACAAATTTTCCTAATCTTTCTGTTCAAGCGCCATCTAC,1.44 RPM ratio (pull-down/input)
13,GATGATTGTTCTCCCAGCTGATGAATTGTCCTTCTCGAGTAAACAAATTTTCCTAATCTTTCTGTTCAAGCGCCATCTAC,0.998 RPM ratio (pull-down/input)
14,GATGATTGTTCTCCCAGCTGATGAATTTCGCACATCGAGTAAACAAATTTTCCTAATCTTTCTGTTCAAGCGCCATCTAC,1.02 RPM ratio (pull-down/input)
15,GATGATTGTTCTCCCAGCTGATGAATTTCGCTTGTCGAGTAAACAAATTTTCCTAATCTTTCTGTTCAAGCGCCATCTAC,0.952 RPM ratio (pull-down/input)
16,GATGATTGTTCTCCCAGCTGATGAATTTAGGCCATCGAGTAAACAAATTTTCCTAATCTTTCTGTTCAAGCGCCATCTAC,0.918 RPM ratio (pull-down/input)

row,Sequence,binding signal
1,GATGATTGTTCTCCCAGCTGATGAATTAGACACTTCGAGTAAACAAATTTTCCTAATCTTTCTGTTCAAGCGCCATCTAC,0.99 RPM ratio (pull-down/input)
2,GATGATTGTTCTCCCAGCTGATGAATTCGAGCAGTCGAGTAAACAAATTTTCCTAATCTTTCTGTTCAAGCGCCATCTAC,0.833 RPM ratio (pull-down/input)
3,GATGATTGTTCTCCCAGCTGATGAATTCTGCATTTCGAGTAAACAAATTTTCCTAATCTTTCTGTTCAAGCGCCATCTAC,1.12 RPM ratio (pull-down/input)
4,GATGATTGTTCTCCCAGCTGATGAATTAGGAAGCTCGAGTAAACAAATTTTCCTAATCTTTCTGTTCAAGCGCCATCTAC,0.891 RPM ratio (pull-down/input)
5,GATGATTGTTCTCCCAGCTGATGAATTCGGGTGATCGAGTAAACAAATTTTCCTAATCTTTCTGTTCAAGCGCCATCTAC,0.848 RPM ratio (pull-down/input)
6,GATGATTGTTCTCCCAGCTGATGAATTGGAAAGGTCGAGTAAACAAATTTTCCTAATCTTTCTGTTCAAGCGCCATCTAC,0.797 RPM ratio (pull-down/input)
7,GATGATTGTTCTCCCAGCTGATGAATTTTGCGCCTCGAGTAAACAAATTTTCCTAATCTTTCTGTTCAAGCGCCATCTAC,0.952 RPM ratio (pull-down/input)
8,GATGATTGTTCTCCCAGCTGATGAATTTCGGGCTTCGAGTAAACAAATTTTCCTAATCTTTCTGTTCAAGCGCCATCTAC,0.748 RPM ratio (pull-down/input)
9,GATGATTGTTCTCCCAGCTGATGAATTAGTACGGTCGAGTAAACAAATTTTCCTAATCTTTCTGTTCAAGCGCCATCTAC,0.956 RPM ratio (pull-down/input)
10,GATGATTGTTCTCCCAGCTGATGAATTTATACCGTCGAGTAAACAAATTTTCCTAATCTTTCTGTTCAAGCGCCATCTAC,1.01 RPM ratio (pull-down/input)
11,GATGATTGTTCTCCCAGCTGATGAATTCATTCAGTCGAGTAAACAAATTTTCCTAATCTTTCTGTTCAAGCGCCATCTAC,0.912 RPM ratio (pull-down/input)
12,GATGATTGTTCTCCCAGCTGATGAATTGATGGTATCGAGTAAACAAATTTTCCTAATCTTTCTGTTCAAGCGCCATCTAC,1.05 RPM ratio (pull-down/input)
13,GATGATTGTTCTCCCAGCTGATGAATTAAGGCCCTCGAGTAAACAAATTTTCCTAATCTTTCTGTTCAAGCGCCATCTAC,0.907 RPM ratio (pull-down/input)
14,GATGATTGTTCTCCCAGCTGATGAATTGATTCTTTCGAGTAAACAAATTTTCCTAATCTTTCTGTTCAAGCGCCATCTAC,1.12 RPM ratio (pull-down/input)
15,GATGATTGTTCTCCCAGCTGATGAATTTATACTTTCGAGTAAACAAATTTTCCTAATCTTTCTGTTCAAGCGCCATCTAC,1.19 RPM ratio (pull-down/input)
